Measurements as given in the supplement of paper PMC8813932.
Where a name gives a salt, the structure may show the parent alone. ± gives the standard deviation of the averaged measurements. This is one part of the list. Repeats are few or missing, and single values can be far off.

How the values were obtained:
Assay in all cases: log2 surviving fraction relative to plate median (drug vs vehicle, or drug+dl922-947 vs dl922-947 alone); ovarian cancer lines: OVCAR4 is platinum-sensitive while Ov4Cis resists cisplatin and Ov4Carbo carboplatin; higher = more cell survival
Conditions in all cases: compound concentration: 10 uM, 192 h
OVCAR4 = test system: OVCAR4
Ov4Carbo = test system: Ov4Carbo
Ov4Cis = test system: Ov4Cis
[1] = dl922-947 oncolytic adenovirus co-treatment: MOI 10
[2] = dl922-947 oncolytic adenovirus co-treatment: none

SMILES | log2 surviving fraction (OVCAR4; [1]) | log2 surviving fraction (OVCAR4; [2]) | log2 surviving fraction (Ov4Carbo; [1]) | log2 surviving fraction (Ov4Carbo; [2]) | log2 surviving fraction (Ov4Cis; [1]) | log2 surviving fraction (Ov4Cis; [2])
CC(C)(C)C(=O)OCOP(=O)(COCCn1cnc2c(N)ncnc21)OCOC(=O)C(C)(C)C [Adefovir Dipivoxil (Preveon, Hepsera)] | -1.4 ± 0.92 | -2.37 ± 1.3 | 0.505 | 0.683 | -1.25 | -3.88
CC(C[N+](C)(C)C)OC(N)=O (configuration not stated) [Bethanechol chloride] | 0.995 ± 0.65 | -0.000232 ± 0.23 | -0.00949 | 1.78 | 0.22 | 0.706
COC(=O)C1=C(C)NC(C)=C(C(=O)OCCN(C)Cc2ccccc2)C1c1cccc([N+](=O)[O-])c1 (configuration not stated) [Nicardipine HCl] | -0.654 ± 0.51 | -0.65 ± 0.39 | 0.0535 | -0.839 | -0.193 | -0.0148
O=C(O)CSCC(=O)NC1CCSC1=O (configuration not stated) [Erdosteine] | 1.75 ± 1.9 | -0.236 ± 0.93 | 1.06 | 0.395 | 0.252 | -0.0275
CN(C)C(=N)NC(=N)N [Metformin hydrochloride (Glucophage)] | 0.5766 ± 3.7e-05 | 0.0251 ± 0.031 | 0.568 | 0.449 | 0.415 | 0.765
N[C@@H](CSCCCO)C(=O)O [Fudosteine] | 0.215 ± 0.086 | -0.0158 ± 0.26 | 0.816 | -0.18 | 0.0644 | -0.628
NCCc1c[nH]c2ccc(O)cc12 [Serotonin HCl] | 0.998 ± 0.45 | 0.308 ± 0.44 | 0.931 | 0.261 | 0.384 | 1.22
O=C1c2ccccc2C(=O)C1c1ccccc1 [Phenindione (Rectadione)] | 0.244 ± 0.76 | 0.242 ± 0.33 | 0.381 | 0.317 | 0.926 | 2.3
C=CCc1cc(OC)c(O)c(C(=O)NCCO)c1 [Alibendol] | -0.613 ± 0.31 | 0.86 ± 0.89 | -0.179 | 0.365 | 1.57 | 1.34
COC(=O)C1=C(C)NC(C)=C(C(=O)OC2CCCN(Cc3ccccc3)C2)C1c1cccc([N+](=O)[O-])c1 (configuration not stated) [Benidipine hydrochloride] | -0.409 ± 0.11 | -1.82 ± 0.14 | -0.384 | -1.83 | -0.846 | -2.2
N#Cc1ccc(C(c2ccc(C#N)cc2)n2cncn2)cc1 [Letrozole] | 0.5621 ± 0.0011 | 3.01 ± 3.1 | 0.649 | -6.75 | -0.302 | -0.0497
CC(c1cc2ccccc2s1)N(O)C(N)=O (configuration not stated) [Zileuton] | 0.671 ± 0.34 | 0.393 ± 0.19 | -0.297 | 1.01 | 0.148 | 0.997
Nc1nc(=O)n([C@@H]2CS[C@H](CO)O2)cc1F [Emtricitabine (Emtriva)] | -0.00922 ± 0.36 | -0.189 ± 0.98 | 1.19 | 0.328 | 0.571 | -0.303
NCCc1ccc(O)c(O)c1 [Dopamine hydrochloride (Inotropin)] | -0.318 ± 0.24 | -0.0334 ± 0.035 | 0.138 | -0.642 | -0.0667 | -0.908
C[C@@H]1CN(c2c(F)c(N)c3c(=O)c(C(=O)O)cn(C4CC4)c3c2F)C[C@H](C)N1 [Sparfloxacin] | 0.287 ± 1.4 | -0.108 ± 0.29 | 0.405 | 0.43 | -1.64 | -0.903
COc1cc2c(cc1Cc1cccc(Cl)c1F)c(=O)c(C(=O)O)cn2[C@H](CO)C(C)C [Elvitegravir (GS-9137)] | -1.86 ± 0.72 | -1.05 ± 0.18 | -1.8 | -0.798 | -1.18 | -1.93
CC(C)(C)CC(C)(C)c1ccc(O)c(Cc2ccc(Cl)cc2Cl)c1 [Clofoctol] | 0.542 ± 0.1 | -0.707 ± 1.5 | 0.258 | 0.283 | -1.95 | -1.74
CN(N=O)C(=O)N[C@@H](C=O)[C@@H](O)[C@H](O)[C@H](O)CO [Streptozotocin (Zanosar)] | 0.244 ± 1.3 | 0.857 ± 0.76 | 0.767 | 0.377 | -0.284 | 0.383
CC[C@H]1OC(=O)[C@H](C)[C@@H](O[C@H]2C[C@@](C)(OC)[C@@H](O)[C@H](C)O2)[C@H](C)[C@@H](O[C@@H]2O[C@H](C)C[C@H](N(C)C)[C@H]2O)[C@](C)(O)C[C@@H](C)CN(C)[C@H](C)[C@@H](O)[C@]1(C)O [Azithromycin (Zithromax)] | -0.0862 ± 1.2 | 0.0687 ± 0.1 | 0.427 | -1.17 | 0.0377 | 0.293
OCCN1C[C@H](O)[C@@H](O)[C@H](O)[C@H]1CO [Miglitol (Glyset)] | 0.345 ± 0.85 | 0.375 ± 0.04 | -0.353 | 0.263 | 0.755 | 1
Nc1ncnc2c1ncn2[C@@H]1O[C@H](CO)[C@@H](O)[C@@H]1O [Vidarabine (Vira-A)] | 1.12 ± 0.45 | 0.594 ± 0.35 | 0.256 | 1.37 | -1.05 | 0.502
CN(C)CCOC(c1ccccc1)c1ccccc1 [Diphenhydramine HCl (Benadryl)] | -0.872 ± 0.28 | 0.08 ± 1 | 0.171 | 0.398 | -0.996 | 0.171
CN1CC(=O)NC1=N [Creatinine] | 0.815 ± 0.37 | 0.32 ± 0.17 | 0.407 | 0.464 | -0.223 | 0.378
CCCCC(=O)O[C@]1(C(=O)CO)[C@@H](C)C[C@H]2[C@@H]3CCC4=CC(=O)C=C[C@]4(C)[C@@]3(F)[C@@H](O)C[C@@]21C [Betamethasone valerate (Betnovate)] | 1.03 ± 0.48 | 0.695 ± 0.96 | 0.263 | -0.177 | 1.78 | -0.791

SMILES | log2 surviving fraction (OVCAR4; [1]) | log2 surviving fraction (OVCAR4; [2]) | log2 surviving fraction (Ov4Carbo; [1]) | log2 surviving fraction (Ov4Carbo; [2]) | log2 surviving fraction (Ov4Cis; [1]) | log2 surviving fraction (Ov4Cis; [2])
Cc1cc(C2CCCCC2)n(O)c(=O)c1 [Ciclopirox ethanolamine] | -6.94 ± 0.88 | -8.95 ± 3 | -7.3 | -12.3 | -5.31 | -12.5
CCCCN1CCCCC1C(=O)Nc1c(C)cccc1C (configuration not stated) [Bupivacaine hydrochloride (Marcain)] | 0.0814 ± 1.6 | -1.04 ± 0.5 | -0.244 | 1.14 | -1.74 | -0.379
CC(=O)Oc1cc2c(s1)CCN(C(C(=O)C1CC1)c1ccccc1F)C2 (configuration not stated) [Prasugrel (Effient)] | 1.1 ± 1.4 | 4.09 ± 2.9 | 1.97 | 0.822 | 1.51 | 2.08
O=C(O)CCCC[C@@H]1SC[C@@H]2NC(=O)N[C@@H]21 [Biotin (Vitamin B7)] | -0.0328 ± 0.38 | -0.288 ± 0.53 | 0.258 | 0.791 | 0.259 | 0.863
CCCCCCCCCCCCCCCCCCCCCCO [Docosanol (Abreva)] | 0.144 ± 1.6 | 0.446 ± 0.17 | -0.435 | 0.199 | -0.474 | 0.448
CCCCC(=O)O[C@H]1CC[C@H]2[C@@H]3CCc4cc(O)ccc4[C@H]3CC[C@]12C [Estradiol valerate] | -0.286 ± 0.73 | -0.776 ± 0.23 | 0.0679 | 0.652 | -0.928 | 0.464
COC(=O)/C=C/C(=O)OC [Dimethyl Fumarate] | 0.00104 ± 0.68 | 0.351 ± 0.72 | -0.713 | 0.11 | 1.03 | 0.88
COc1c2occc2cc2ccc(=O)oc12 [Methoxsalen (Oxsoralen)] | 0.858 ± 0.12 | 0.678 ± 0.64 | 0.272 | 0.249 | 0.0292 | 0.723
CCN(CC)CCOC(=O)c1ccc(N)cc1 [Procaine (Novocaine) HCl] | 0.566 ± 0.46 | 0.586 ± 0.45 | 0.222 | 1.82 | -0.722 | -0.0196
N[C@@H](Cc1cc(I)c(Oc2cc(I)c(O)c(I)c2)c(I)c1)C(=O)O [L-Thyroxine] | 0.439 ± 0.34 | -0.0215 ± 0.22 | 0.365 | -0.676 | 0.324 | 0.0763
O=C(NC(Cc1cc(=O)[nH]c2ccccc12)C(=O)O)c1ccc(Cl)cc1 (configuration not stated) [Rebamipide] | -0.798 ± 0.062 | -0.334 ± 0.18 | 0.406 | -0.477 | -0.402 | -0.206
Cc1onc(-c2ccccc2)c1C(=O)N[C@@H]1C(=O)N2[C@@H]1SC(C)(C)[C@@H]2C(=O)O [Oxacillin sodium monohydrate] | 0.247 ± 0.57 | 1.35 ± 0.046 | 0.921 | 0.433 | 1.41 | 0.971
OC[C@H]1OC(O)[C@H](O)[C@@H](O)[C@@H]1O (stereo partly drawn) [Dextrose (D-glucose)] | -0.0971 ± 0.58 | -0.0435 ± 0.74 | 0.0994 | 1.55 | -0.457 | -0.573
OC[C@@H](O)[C@@H](O)[C@H](O)[C@@H](O)CO [Sorbitol (Glucitol)] | 0.0159 ± 0.14 | 0.864 ± 0.96 | 0.938 | 0.717 | 0.148 | -0.00773
CC(=O)Nc1ccccc1 [Acetanilide (Antifebrin)] | -0.0651 ± 0.34 | -0.848 ± 1.8 | -0.401 | -0.0226 | -0.689 | 0.593
O=C(O)CCCN1CCC(O[C@@H](c2ccc(Cl)cc2)c2ccccn2)CC1 [Bepotastine Besilate] | 0.0852 ± 0.52 | 0.775 ± 0.55 | 0.908 | 1.64 | 0.0558 | -1.93
O=C(Nc1ccccc1)c1ccccc1O [Salicylanilide] | -0.0641 ± 0.17 | -0.865 ± 0.68 | -0.484 | -0.174 | 0.824 | -1.3
C1N2CN3CN1CN(C2)C3 [Methenamine (Mandelamine)] | 0.0864 ± 0.1 | 0.184 ± 0.42 | 1.07 | 0.302 | 0.232 | 1.16
COc1ccc(C2C(=O)c3ccccc3C2=O)cc1 [Anisindione] | -0.0654 ± 0.19 | 0.228 ± 0.45 | 0.0414 | -0.00449 | 0.736 | 0.625
CC[C@H](C)C[C@H](C)CCCCCCCCC(=O)N[C@H]1C[C@@H](O)[C@@H](NCCN)NC(=O)[C@@H]2[C@@H](O)CCN2C(=O)[C@H]([C@H](O)CCN)NC(=O)[C@H]([C@H](O)[C@@H](O)c2ccc(O)cc2)NC(=O)[C@@H]2C[C@@H](O)CN2C(=O)[C@H]([C@@H](C)O)NC1=O [Caspofungin acetate] | 1.06 ± 0.097 | -0.235 ± 0.11 | -0.224 | 1.06 | 0.305 | 0.259
CNC(=O)c1ccccc1Sc1ccc2c(/C=C/c3ccccn3)n[nH]c2c1 [Axitinib] | -1.41 ± 0.89 | -0.766 ± 1.7 | -4.46 | -0.686 | -0.641 | 0.295
CCC(C)(C)C(=O)O[C@H]1C[C@@H](C)C=C2C=C[C@H](C)[C@H](CC[C@@H]3C[C@@H](O)CC(=O)O3)[C@H]21 [Simvastatin (Zocor)] | -0.55 ± 0.9 | -3.16 ± 0.088 | -1.9 | -6.69 | -1.87 | -2.25
COc1ccc(Cl)cc1C(=O)NCCc1ccc(S(=O)(=O)NC(=O)NC2CCCCC2)cc1 [Glyburide (Diabeta)] | -0.267 ± 0.054 | -0.766 ± 0.075 | -0.00793 | 0.963 | -0.795 | -0.241
